# Experimental data taken from patent publication US9388243B2, “Method of target membrane protein depletion” (Samsung Electronics Co., Ltd., priority 2013, dated 2016).
# What was measured:
# Details in all cases: rank among the four antibodies of Reference Example 1.7
# Akt phosphorylation = Akt phosphorylation by the four affinity-matured antibodies; type: cell-based
# c-Met [1] = target: T1, c-Met (Homo sapiens, UniProt P08581); assay: Affinity for c-Met of the four affinity-matured antibodies; type: binding
# T1 sequence (P08581 25-1390): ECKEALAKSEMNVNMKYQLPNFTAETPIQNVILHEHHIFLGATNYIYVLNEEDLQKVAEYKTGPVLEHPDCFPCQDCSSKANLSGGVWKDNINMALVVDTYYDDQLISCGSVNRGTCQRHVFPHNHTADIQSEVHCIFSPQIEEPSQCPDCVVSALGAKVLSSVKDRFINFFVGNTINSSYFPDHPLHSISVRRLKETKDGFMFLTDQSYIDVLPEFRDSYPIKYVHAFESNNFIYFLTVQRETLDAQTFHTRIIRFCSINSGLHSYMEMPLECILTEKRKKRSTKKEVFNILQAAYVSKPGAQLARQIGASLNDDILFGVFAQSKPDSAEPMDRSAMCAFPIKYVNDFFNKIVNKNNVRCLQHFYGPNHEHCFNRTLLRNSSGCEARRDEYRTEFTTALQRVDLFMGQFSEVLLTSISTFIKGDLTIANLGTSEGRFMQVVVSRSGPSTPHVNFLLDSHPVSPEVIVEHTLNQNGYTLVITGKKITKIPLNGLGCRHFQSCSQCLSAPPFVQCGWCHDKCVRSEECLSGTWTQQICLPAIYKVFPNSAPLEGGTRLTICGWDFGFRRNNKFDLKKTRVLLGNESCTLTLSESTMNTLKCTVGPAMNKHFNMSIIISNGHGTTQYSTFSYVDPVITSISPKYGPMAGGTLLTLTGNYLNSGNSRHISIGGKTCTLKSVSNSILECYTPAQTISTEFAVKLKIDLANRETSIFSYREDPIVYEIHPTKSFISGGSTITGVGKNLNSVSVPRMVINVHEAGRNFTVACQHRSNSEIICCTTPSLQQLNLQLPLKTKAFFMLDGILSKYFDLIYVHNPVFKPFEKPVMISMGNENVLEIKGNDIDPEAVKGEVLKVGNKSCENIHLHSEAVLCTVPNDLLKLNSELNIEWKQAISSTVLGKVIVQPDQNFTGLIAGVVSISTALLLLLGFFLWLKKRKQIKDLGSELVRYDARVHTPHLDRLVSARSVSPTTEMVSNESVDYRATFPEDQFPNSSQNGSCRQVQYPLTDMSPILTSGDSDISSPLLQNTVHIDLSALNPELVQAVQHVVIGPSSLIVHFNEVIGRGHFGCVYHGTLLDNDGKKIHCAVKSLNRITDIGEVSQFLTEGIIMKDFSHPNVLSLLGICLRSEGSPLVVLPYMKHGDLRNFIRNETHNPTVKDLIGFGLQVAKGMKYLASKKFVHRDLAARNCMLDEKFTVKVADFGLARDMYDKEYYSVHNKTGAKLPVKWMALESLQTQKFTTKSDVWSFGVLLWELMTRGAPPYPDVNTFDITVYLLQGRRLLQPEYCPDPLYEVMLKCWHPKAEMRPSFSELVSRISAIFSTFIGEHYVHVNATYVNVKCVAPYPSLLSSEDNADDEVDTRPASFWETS
# c-Met [2] = target: T1, c-Met; assay: c-Met degradation degree of the four affinity-matured antibodies; type: cell-based
molecule,measurement,setting,value
"huAbF46-H4-A1: affinity-matured anti-c-Met antibody, L3-1 origin (antibody) heavy: EVQLVESGGGLVQPGGSLRLSCAASGFTFTDYYMSWVRQAPGKGLEWLGFIRNKANGYTTEYSASVKGRFTISRDNSKNTLYLQMNSLRAEDTAVYYCARDNWFAYWGQGTLVTVSSASTKGPSVFPLAPSSKSTSGGTAALGCLVKDYFPEPVTVSWNSGALTSGVHTFPAVLQSSGLYSLSSVVTVPSSSLGTQTYICNVNHKPSNTKVDKKVEPKSCDCH[human IgG1 Fc skipped] light: DIQMTQSPSSLSASVGDRVTITCKSSQSLLASGNQNNYLAWHQQKPGKAPKMLIIWASTRVSGVPSRFSGSGSGTDFTLTISSLQPEDFATYYCQQSYSRPYTFGQGTKVEIKRTVAAPSVFIFPPSDEQLKSGTASVVCLLNNFYPREAKVQWKVDNALQSGNSQESVTEQDSKDSTYSLSSTLTLSKADYEKHKVYACEVTHQGLSSPVTKSFNRGEC",Akt phosphorylation,Akt phosphorylation,lowest
same,affinity for c-Met,c-Met [1],highest
same,c-Met degradation degree,c-Met [2],lowest
